The supplement of paper PMC10338343
± gives the standard deviation. Over roughly 6,600 sequences, “pre-steady-state target cleavage rate” has its median near 0.07; the highest 2% begin near 0.72. This is a selection; strong and weak results do not stand in their true shares.

tested on: MIWI (PIWIL1) piRISC loaded with Kctd7 piRNA (30 nt); experiment: pre-steady-state target cleavage rate (min^-1); MIWI and MILI are mouse PIWI proteins and EfPiwi is from a freshwater sponge; tags in brackets are library labels; higher = faster piRNA-guided slicing of the target; conditions: guide: Kctd7 piRNA 5'p-UGUUAAUCUCUCAGAGAAGGUGACAGUGAU; auxiliary factor: 500 nM mouse GTSF1
Procedure, shortened: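 The pre-steady-state cleavage rate was calculated from a burst-and-steady-state fit. Data came from Cleave-'n-Seq, in which […] transcribed, DNA-blocked target RNA library was mixed with 1 nM active affinity-purified piRISC carrying one synthetic guide, with or without 500 nM GTSF1 partner protein, in HEPES–potassium acetate buffer at 33 °C for 0–8 or 0–960 min. Uncleaved targets were sequenced and normalised to depth and to weakly complementary targets, three trials were pooled, and k3 was capped at 0.0001 min^-1.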
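Also: 1 nM active piRISC with 0.1 nM target library at 33 °C single turnover.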

Sequence | pre-steady-state target cleavage rate
UAGUCUGUCACCUUCUCUGACAGAUUAUCA | 0.00526 ± 0.0041
UAGUGACAGUGGAUCUCUGAGAGGUUAACA | < 0.0001
UAGACUGUCAGCUUCUCUCAGAGAUUAACA | 0.0676 ± 0.0041
AUCACUGUCACCUUCUCUGUGAGAUUAUCA | 0.127 ± 0.026
UAGUGUGUCACCUCUCUGAGAGAUUAACA | 0.263 ± 0.029
UACACUGUCUCCUUCUCUGAGAGAUUAAGA | 0.0715 ± 0.018
UACACUGUCACCUUCUCUGAGAGAUAUACA | 0.255 ± 0.04
UAGUGUGUCACCUUCUCUCUGAGAUUAACA | 0.0168 ± 0.004
UAGUGAGUCACCUUCUCUGAGAGAUUAGACA | 0.285 ± 0.047
UAGUGAGUCUCCUUCUCUGAGAGUUUAACA | 0.271 ± 0.05
UUCACUGCACCUUCUCUGAGAGAUUAACA | 0.675 ± 0.038
UAGUGACUCACCUUGUCAGAGAGAUUAACA | 0.0182 ± 0.0042
UAGACUGUGACCUUCUCUGACAGAUUAACA | 0.249 ± 0.026
UUCACUGUGUCCUUCUCUGAGAGAUUAAGA | 0.138 ± 0.024
UACACUGUCACCAUCUCUCAGAGAUUAACA | 0.0433 ± 0.0098
UAGUGACAGUCAUUCUCUGAGAGAUUAACA | 0.0075 ± 0.0025
UAGACAGUCACCUUCUCUGAGAGAAUAACA | 0.394 ± 0.063
UAGUGACAGUGGAAGUCUGAGACAUAAACA | < 0.0001
UAGUGUGUCAUCUUCUCUGAGAGAUUAACA | 0.487 ± 0.026
UAGUGACAGACCUUGUCUGUGAGAUUAACA | 0.00699 ± 0.0042

Sequence | pre-steady-state target cleavage rate
UAGUGAGUCACCUUGUCUGAGAGAUUAAGA | 0.0318 ± 0.0098
UAGUGACAGUCCUUCUGUGAGAGAUUAACA | 0.0195 ± 0.0039
UAGUGUGUCACCUUCUCUGAGAGAUUUUCA | 0.114 ± 0.019
UAGUGAGUCAGCUUCUCUGACAGAUUAACA | 0.166 ± 0.02
UAGUGUGUCACCUUCUCUGAGUCAUUAACA | 0.0174 ± 0.0057
UAGUGACUCACCUUCUCUGACAGAUUAAGA | 0.0163 ± 0.0043
UAGUGACAGUCCUUCUCUGAGUGAUUAACA | 0.00395 ± 0.0021
UUCACUGUCACCUUCCCUGAGAGAUUAACA | 0.436 ± 0.059
UUGACUGUCACCUUCUCAGAGAGAUUAACA | 0.346 ± 0.021
UAGUGACAGACCUUCUCUGACAGAUUAACA | 0.0495 ± 0.0088
UAGUGUGUCACCUGUCUCUGAGAGAUUAACA | 0.434 ± 0.027
UUCACUGUCACCUUCUCUGAGACUUUAUGA | 0.00438 ± 0.0033
UAGUGAGUCACCUUCUCUCAGAGAUUUACA | 0.0294 ± 0.0092
UAGUGAGUCACCUUCUCUGAGAGAUUAAACA | 0.496 ± 0.049
AUCACUGUCACCUUAUCUGAGAGAUUAACA | 0.63 ± 0.025
AUCACUGUCACCUUCUCUGAGAGGUUAACA | 0.383 ± 0.03
AUCACUGUCACCUUCUCUGAGACAAUAACA | 0.0188 ± 0.0067
UAGUGUGUCACCUUCUCUGAGAGAUUACA | 0.104 ± 0.021
UAGUCAGUCACCUUCUGUGAGAGAUUAACA | 0.639 ± 0.034
UAGUGAGUCACCUUGUGUGAGAGAUUAACA | 0.131 ± 0.019
